Where a name gives a salt, the structure may show the parent alone.
Test system: secretion of neutral proteinases by stimulated chondrocytes
Test: Inhibition of secretion of neutral proteinases by stimulated chondrocytes in culture (in vitro study)
Conditions: 3 days' culture with 20% of medium containing chondrocyte stimulating factor; concentration which avoids cytotoxicity or insolubility
Description: The in vitro study is based on the fact that chondrocytes in a culture secrete neutral proteinases after stimulation by a factor synthesized by peritoneal macrophages or by the mononuclear cells of the blood.
The following procedure was used.
The chondrocytes are isolated from cartilage from the nasal septum of the calf or from articular cartilage of the rabbit, by enzymatic digestion, and are cultured in DMEN medium containing 10% of calf serum, to a density of 5×10^15 cells per 10 cm Petri dish. The culture medium is renewed every 48 hours.
After one week's culture, the cells are sub-cultured by treatment with trypsin EDTA. The cells are then again cultured in DMEM medium containing 10% of fetal calf serum to a density of 2×10^5 cells per 16 mm dish. Confluence occurs after 3 days' culture.
The peritoneal macrophages of the rabbit are abtained by the method described by DESHMUKH-PHADKE et al., Biochemical Biophysical Research Communication, 85, 490-6, (1978).
The mononuclear cells of human blood are prepared and cultured in accordance with the procedure of DAYER et al. [The Journal of Immunology, 124, 1712-1720 (1980)].
After culture, the medium containing the "chondrocyte stimulating factor" is recovered, filtered on an 0.22 μ Millipore filter and frozen at -20° C.
At the time of confluence, the culture medium of the chondrocytes is replaced by DMEM medium containing 1% of fetal calf serum, mixed with 20% of medium containing the chondrocyte stimulating factor.
The products to be tested are introduced into the culture medium at the same time as the stimulation medium; at a concentration which avoids cytotoxicity of the product or insolubility of the product. After 3 days' culture, the medium is recovered in order to determine its content of neutral proteinases.
The procedure of VAES et al. Biochemical Journal, 172, 261, (1978) is used.
They are expressed as a percentage inhibition of the secretion of neutral proteinases by stimulated chondrocytes treated with the products to be studied, relative to that of stimulated chondrocytes not treated with the products.

SMILES	Chondrocyte in culture % inhibition (inhibition of the secretion of neutral proteinases by stimulated chondrocytes relative to stimulated untreated chondrocytes) [%]
CSCCCC(P(=O)(O)O)P(=O)(O)O [SR 41 177, Tertiary-butylammonium 4-(methylthio)-butylidene-1,1-diphosphonate]	69 ± 4
O=P(O)(O)C(SCCCc1ccccc1)P(=O)(O)O [SR 41 908]	82 ± 2
CCN(CC)C(=S)SC(P(=O)(O)O)P(=O)(O)O [SR 41 960]	55 ± 4
O=P(O)(O)C(Sc1nc2ccccc2s1)P(=O)(O)O [SR 41 481, Tri-(tertiarybutylamine) salt of benzothiazol-2-yl-thiomethylene-diphosphonic acid]	74 ± 9
O=P(O)(O)C(Sc1cccs1)P(=O)(O)O [SR 41 549, thien-2-yl-thiomethylene-diphosphonic acid]	58 ± 4
CCCCCCCCSC(P(=O)(O)O)P(=O)(O)O [SR 41 421]	97 ± 2
O=P(O)(O)C(Sc1ccccc1)P(=O)(O)O [SR 41 482]	83 ± 6
CCCCCCCCCCSC(P(=O)(O)O)P(=O)(O)O [SR 41 457, decylthiomethylene-diphosphonic acid]	95 ± 3
O=P(O)(O)C(Sc1ccccn1)P(=O)(O)O [SR 41 179]	75 ± 7
CCCCCCCCCCCCCCCCSC(P(=O)(O)O)P(=O)(O)O [SR 41 453, Monoammonium hexadecylthiomethylene-diphosphonate]	40 ± 2
O=P(O)(O)C(CCCSc1ccccc1)P(=O)(O)O [SR 41 342, Di-(tertiarybutylamine salt) of 4-phenylthio-butylidene-1,1-diphosphonic acid]	99 ± 1
CC(C)SC(P(=O)(O)O)P(=O)(O)O [SR 41 100]	20 ± 1
O=P(O)(O)C(Sc1nc2ccccc2[nH]1)P(=O)(O)O [SR 41 263]	90 ± 1
COP(=O)(OC)C(Sc1nc2ccccc2o1)P(=O)(OC)OC [SR 41 625, Tetramethyl benzoxazol-2-yl-thiomethylene-diphosphonate]	92 ± 0
O=P(O)(O)C(CCCCCCSc1ccc(Cl)cc1)P(=O)(O)O [SR 41 959]	79 ± 2
NCCSC(P(=O)(O)O)P(=O)(O)O [SR 41 266]	68 ± 8
Nc1ccccc1SC(P(=O)(O)O)P(=O)(O)O [SR 41 388]	90 ± 1
O=P(O)(O)C(Sc1ccccc1Cl)P(=O)(O)O [SR 41 689]	90 ± 3
O=P(O)(O)C(Sc1nc2cc(Cl)ccc2[nH]1)P(=O)(O)O [SR 41 480]	56 ± 9
O=P(O)(O)C(CCCCSc1ccccn1)P(=O)(O)O [SR 42 099, 5-(pyrid-2-yl-thio)-pentylidene-1,1-diphosphonic acid]	50 ± 5
O=P(O)(O)C(Sc1ccc(Cl)cc1)P(=O)(O)O [SR 41 319, Di-(tertiarybutylamine) salt of (4-chlorophenyl)thiomethylene-diphosphonicacid]	85 ± 1
O=P(O)(O)C(Sc1cccc(C(F)(F)F)c1)P(=O)(O)O [SR 42 249]	92 ± 4
CN(C)CCSC(P(=O)(O)O)P(=O)(O)O [SR 41 344]	31 ± 6
O=P(O)(O)C(Sc1ncccn1)P(=O)(O)O [SR 41 264]	50 ± 10
Cc1ccc(SC(P(=O)(O)O)P(=O)(O)O)cc1 [SR 41 456]	98 ± 2
O=P(O)(O)C(CCCCS)P(=O)(O)O [SR 41 527, Di-(tertiarybutylalmine) salt of 5-mercapto-pentylidene-1,1-diphosphonic acid]	54 ± 3
CSC(P(=O)(O)O)P(=O)(O)O [SR 41 036, Tri-(tertiary butylamine) salt of methylthio-methylene-diphosphonic acid]	72 ± 8

Source: patent US4876248A, “Anti-inflammatory products derived from methylene-diphosphonic acid, and process for their preparation” (priority 1982, dated 1989)
